Among the data in article PMC5836133 are binding signal values, retold here.

The other results are listed elsewhere or left out. At the low end of the ranking, values are background and their order means little.

For the experiment, the system named is T1, GST-NbGlk1(82-244).
T1 sequence: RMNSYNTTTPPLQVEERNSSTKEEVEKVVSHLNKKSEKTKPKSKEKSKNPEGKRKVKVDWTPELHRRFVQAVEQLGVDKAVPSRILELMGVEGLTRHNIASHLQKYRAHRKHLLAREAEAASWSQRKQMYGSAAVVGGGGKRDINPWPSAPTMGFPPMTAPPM
The experiment can be described thus: protein-binding microarray.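 Note: rank-based score ranging −0.5 to +0.5 with E above 0.45 taken as significant binding.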 As to conditions: NbGlk1 is a Golden2-like transcription factor of Nicotiana benthamiana; high values mean tight binding; most listed sequences are background and not binding sites; double strand, one strand shown.
Regarding CACAGTCG, the binding signal was -0.22 E-score.
In the case of ACAGTCCC, the binding signal was -0.175 E-score.
With AGTAAGAG the figure was 0.00657 E-score.
Next, ACCTCTCC: -0.122 E-score.
Next, CAAGTTAA: -0.0639 E-score; AGTATTAG: 0.0655 E-score.
The sequence AGGGAGAT displayed a binding signal of 0.281 E-score.
Next, CAGAATAG: -0.0163 E-score; CACGGGAC: -0.244 E-score.
Next, AAACTGCA: -0.114 E-score; AGTACTGC: -0.0403 E-score.
For AAGGATAC, the binding signal was 0.0958 E-score.
With ATACACGC the figure was -0.0739 E-score.
With ATGCTATG, the binding signal is -0.0989 E-score.
AGCAAAGG came in with a binding signal of -0.149 E-score.
With AAGGCACC, the binding signal was -0.29 E-score.
Consider ATAGATTC, for which the binding signal came to 0.437 E-score.
Next, ATTTGGGA: 0.22 E-score; AAGAGGAG: -0.207 E-score.
ATTATGTG returned a binding signal of 0.101 E-score.
ACAGCTAT had a binding signal of 0.0211 E-score.
Next, ATCATGAA: 0.215 E-score; ATGGGTCG: -0.184 E-score; ACCATATA: 0.118 E-score.
As for ATCCAGGA, the binding signal was 0.328 E-score.
Next, AGGTAGCA: -0.132 E-score; AAAGCTTC: -0.176 E-score; AGATGCCC: -0.111 E-score.
Sequence AGGACTCC returned a binding signal of -0.31 E-score.
As to ACCCGAAA, the binding signal came out at 0.00571 E-score.
With AAAGCCTA the figure was -0.0333 E-score.
With AGTTAGGA the figure was 0.0497 E-score; with ACACCGAT, 0.145 E-score; with ATCACTCA, 0.176 E-score.
Next, AGAGATGA: -0.0128 E-score; AAGCTATG: -0.161 E-score; ACCAGCTC: -0.249 E-score.
CAACCACA showed a binding signal of -0.101 E-score.
With ACCCCAAC the figure was -0.108 E-score; with AACCCTTC, -0.233 E-score.
With AAGGAGGG the figure was -0.244 E-score; with AGGAGTGC, -0.206 E-score; with ATTCCAGA, 0.111 E-score.
Sequence CACAACAC gave a binding signal of 0.107 E-score.
AGTTGGAT had a binding signal of 0.269 E-score.
With ACAATGCG the figure was -0.0864 E-score.
With AGATGTGG the figure was -0.0812 E-score; with ATATGGAC, 0.0925 E-score; with ACCGCACT, -0.0389 E-score.
With ACTTCCGG the figure was -0.0985 E-score; with AACAAGCA, -0.00652 E-score.
CAAAGATG gave a binding signal of -0.0188 E-score.
Next, ACCCGCTA: -0.144 E-score.
ATTCAACC yielded a binding signal of 0.0863 E-score.
With AGATAATA the figure was 0.116 E-score; with ACCGGTAT, 0.0515 E-score; with AGTAACTC, -0.156 E-score.
Next, CAAGTAGA: 0.106 E-score; ACTAAGAC: -0.0841 E-score.
Next, AAATAAGC: 0.0906 E-score.
AACAAGGC showed a binding signal of -0.115 E-score.
Consider AAATTATG, for which the binding signal worked out at 0.0815 E-score.
Next, ACGGAAGC: -0.208 E-score.
Next, AAAGCGTT: -0.0734 E-score; ATCAACTG: 0.0489 E-score.
With AATAGAGG the figure was 0.0151 E-score; with AGCCTCGC, -0.192 E-score.
Sequence ACAATGGC registered a binding signal of -0.0799 E-score.
Next, ACTACTGA: 0.113 E-score; AAGCATCA: 0.00693 E-score.
Next, ACTGCCGG: -0.147 E-score; ACCCCGGT: -0.266 E-score.
Next, ACTGTGCA: -0.148 E-score.
The sequence CAGAAATC had a binding signal of 0.405 E-score.
With CAATGCCC the figure was -0.224 E-score.
Next, AGCAACAA: 0.00402 E-score.
With AAGCTTAG the figure was 0.000607 E-score; with AAACCGTT, -0.0172 E-score; with ATCGTAAC, 0.244 E-score.
AACGCTGC came in with a binding signal of -0.0879 E-score.
Next, ATGCAGAC: -0.144 E-score; CAACCAGA: 0.0468 E-score; ATCACGAC: 0.17 E-score.
Next, ACAGATAT: 0.415 E-score.
Next, ATCCTTTG: 0.201 E-score; CAAAATTA: 0.0949 E-score; ATGCGTTC: -0.115 E-score.
ATCCGGCG: the binding signal came to 0.083 E-score.
Sequence ACGATCCT showed a binding signal of 0.272 E-score.
Next, AACTCTTG: -0.0858 E-score; ACGGCCGT: -0.0422 E-score; AGCTCATG: -0.193 E-score.
With ACGGTCAT the figure was -0.0803 E-score; with AAGAATGA, 0.0221 E-score.
With AGCCTGCA the figure was -0.233 E-score.
In turn, ACATTACT showed a binding signal of 0.0636 E-score.
The sequence ATAGTTCG displayed a binding signal of -0.0776 E-score.
Next, AAATGCAC: -0.0725 E-score; CACATCTC: -0.0459 E-score.
In the case of AACCCGAG, the binding signal was -0.197 E-score.
With ATGAGACA the figure was 0.0389 E-score; with ATGTACAT, 0.123 E-score.
Sequence AAGCGCCT showed a binding signal of -0.17 E-score.
The sequence ATTAAAAC came in with a binding signal of -0.0516 E-score.
Next, AATTCGGA: 0.17 E-score.
With AAAGGACA the figure was 0.0338 E-score; with ATCCGGAC, 0.272 E-score; with AAGGGCTG, -0.302 E-score.
With AACCGCAG the figure was -0.0931 E-score; with ACACGGGG, 0.00936 E-score; with ACAGCATC, 0.0298 E-score.
The sequence AGGCTATC gave a binding signal of -0.0876 E-score.
With AGCCTAGG the figure was -0.317 E-score.
As for CACGTTGA, the binding signal was -0.151 E-score.
With AGGGGGGA the figure was -0.137 E-score; with AGCAGTTC, -0.0663 E-score.
Next, AAACGTAG: -0.0281 E-score; ACGGCTGC: -0.271 E-score.
Regarding ATATAGGA, the binding signal is 0.175 E-score.
With AAGACGCC the figure was -0.268 E-score.
Next, ACAAACTG: -0.128 E-score; ATACTGGA: 0.0298 E-score.
With ACCGTGTG the figure was -0.21 E-score; with ATTACTCG, 0.219 E-score.
For ATCCTCCG, the binding signal came to 0.257 E-score.
Consider AGTGTACC, for which the binding signal was -0.149 E-score.
Next, ACTTCGGG: -0.154 E-score; AACACGCA: 0.0515 E-score.
Sequence ACCAATCG displayed a binding signal of 0.0759 E-score.
Next, ATATACTC: 0.244 E-score; AAGCCTGA: -0.0987 E-score.
ACCTTATC came in with a binding signal of -0.1 E-score.
With ATCCTGCG the figure was 0.207 E-score; with AGTTAGGC, -0.0872 E-score.
Next, AATAGCAT: 0.0615 E-score.
For ACACTTAC, the binding signal was -0.00522 E-score.
ATTGTAAA returned a binding signal of 0.12 E-score.
With ACCAAGGT the figure was -0.141 E-score.
Next, ATTTTTGA: 0.24 E-score; AGCAATGG: -0.199 E-score; CAACCGCC: -0.174 E-score.
In turn, AGCCTGCC gave a binding signal of -0.303 E-score.
With AAACACCC the figure was -0.191 E-score.
With AATCAACT the figure was 0.274 E-score; with ACGTCTAT, -0.0157 E-score.
With AGGGGCGG the figure was -0.34 E-score.
Regarding ACCCGTGC, the binding signal is -0.179 E-score.
As for AAGCATGC, the binding signal is -0.119 E-score.
The sequence AGCCACGC displayed a binding signal of -0.24 E-score.
Regarding ACTGCAAG, the binding signal was -0.0497 E-score.
With AACTGCCC the figure was -0.156 E-score; with AGCACTGC, -0.106 E-score.
Next, AATCGAGT: 0.167 E-score; ACAACTCT: -0.0583 E-score; ACTCTCGA: -0.15 E-score.
With AACGCGGG the figure was -0.168 E-score; with AGGCCTCC, -0.184 E-score.
CAGATACA: the binding signal worked out at 0.19 E-score.
With AGTCAGGG the figure was -0.253 E-score; with AACGGCCG, -0.0619 E-score; with AGTACAAA, 0.141 E-score.
Next, ACAAGGGT: -0.145 E-score; ACAGCGAA: -0.00907 E-score.
Next, AAATGCTG: -0.0373 E-score; ACGGGTTA: -0.0663 E-score.
For the sequence AGAACAGA, the binding signal was 0.14 E-score.
Next, ATTAGGAG: -0.0201 E-score; AAGTTGGC: -0.118 E-score.
With CAAACGCC the figure was -0.22 E-score; with AGTCAAGA, -0.00495 E-score.
Consider AGCGCCCT, for which the binding signal is -0.285 E-score.
With ATAGTCTG the figure was 0.0529 E-score.
